Experimental data from the BET-seq Pho4 binding data (Le et al. 2018).
Some of the results follow. The energies were worked out here from pooled read counts, against the library average; single values are noisy.

target: T1, Pho4 (S. cerevisiae) (UniProt P07270); experiment: relative binding free energy (BET-seq); higher = weaker binding; conditions: reference: library average
T1 sequence: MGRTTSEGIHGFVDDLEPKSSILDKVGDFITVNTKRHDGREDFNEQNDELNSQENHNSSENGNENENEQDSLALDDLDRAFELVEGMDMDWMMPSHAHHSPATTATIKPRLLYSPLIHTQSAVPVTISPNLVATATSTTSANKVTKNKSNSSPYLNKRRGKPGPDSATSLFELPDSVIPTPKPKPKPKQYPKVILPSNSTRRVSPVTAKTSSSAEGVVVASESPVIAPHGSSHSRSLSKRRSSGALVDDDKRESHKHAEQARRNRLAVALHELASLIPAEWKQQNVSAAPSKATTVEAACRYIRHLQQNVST

Row | Sequence | relative binding free energy
1 | TGGACCACGTGAGTGG | 0.05 kcal/mol
2 | TACATCACGTGTTTGG | 0.07 kcal/mol
3 | GTTTACACGTGGAGTA | 0.1 kcal/mol
4 | AGGATCACGTGGGGCC | 0.13 kcal/mol
5 | GTTTGCACGTGTTGGC | 0.1 kcal/mol
6 | GGGGCCACGTGGATTA | -0.02 kcal/mol
7 | TGGAGCACGTGCGTTT | -0.2 kcal/mol
8 | AGTTACACGTGAAGTG | 0.27 kcal/mol
9 | AGGGTCACGTGGGATG | 0.14 kcal/mol
10 | TGCTTCACGTGTTTGA | 0.21 kcal/mol
11 | GGTTGCACGTGAGCGT | 0.21 kcal/mol
12 | AAAATCACGTGTGTTA | 0.25 kcal/mol
13 | AGGCTCACGTGGAAGG | 0.11 kcal/mol
14 | ATGCGCACGTGGGAGG | -0.32 kcal/mol
15 | AAAGTCACGTGATAAT | 0.33 kcal/mol
16 | GGTTCCACGTGTGATG | 0.2 kcal/mol
17 | TTTATCACGTGGCGTG | 0.04 kcal/mol
18 | TACAGCACGTGGTTGT | -0.29 kcal/mol
19 | AATGGCACGTGGGAGT | -0.14 kcal/mol
20 | TAAGTCACGTGTTGCG | 0.05 kcal/mol
21 | GGTATCACGTGTTCGG | 0.09 kcal/mol
22 | TTATTCACGTGTTAGA | 0.06 kcal/mol
23 | GAGTGCACGTGGATGA | 0.14 kcal/mol

Row | Sequence | relative binding free energy
24 | GTGGCCACGTGTGTCG | 0.05 kcal/mol
25 | TGGGTCACGTGTCGTT | 0.03 kcal/mol
26 | CTGGACACGTGTTGGT | 0.04 kcal/mol
27 | TGTTCCACGTGTTTCT | 0.06 kcal/mol
28 | TGTTTCACGTGTGTAG | 0.24 kcal/mol
29 | TCTAGCACGTGGTAGG | -0.03 kcal/mol
30 | AAGTGCACGTGGTTTG | -0.02 kcal/mol
31 | TGGACCACGTGTTGGC | 0.09 kcal/mol
32 | ACTGGCACGTGGCGGT | -0.23 kcal/mol
33 | ACGGTCACGTGCGGTG | 0.06 kcal/mol
34 | TGATTCACGTGGTTGG | 0.24 kcal/mol
35 | TTGCGCACGTGTGTTG | 0 kcal/mol
36 | GTGGTCACGTGTTTTT | 0.27 kcal/mol
37 | AAGCGCACGTGGTTTT | -0.09 kcal/mol
38 | TGTGCCACGTGTCGTG | -0.14 kcal/mol
39 | GGAGACACGTGGGCAG | -0.1 kcal/mol
40 | TAGGGCACGTGGCATA | -0.16 kcal/mol
41 | TTGTTCACGTGGGGTG | 0.14 kcal/mol
42 | TTGTGCACGTGAGCTC | 0.26 kcal/mol
43 | ATTAACACGTGTTGCG | -0.06 kcal/mol
44 | CAGGGCACGTGAATTT | 0.32 kcal/mol
45 | AATAGCACGTGGTGTC | -0.1 kcal/mol
46 | TGTCTCACGTGTGCGT | 0.12 kcal/mol

Row | Sequence | relative binding free energy
47 | AGTTGCACGTGTGAGA | 0.08 kcal/mol
48 | TGGACCACGTGTTTAG | 0.05 kcal/mol
49 | TTAGTCACGTGATAGT | 0.17 kcal/mol
50 | TGGGACACGTGGGACG | -0.13 kcal/mol
51 | CGGGACACGTGTAGTT | 0.09 kcal/mol
52 | ATGCGCACGTGAGGTA | 0.04 kcal/mol
53 | GCATACACGTGGTTGT | 0.04 kcal/mol
54 | GAAGGCACGTGATTTT | 0.07 kcal/mol
55 | ATTGGCACGTGGCAGA | -0.14 kcal/mol
56 | AGTTTCACGTGGAGGC | 0.23 kcal/mol
57 | TATGACACGTGATGGA | 0.22 kcal/mol
58 | TAGTGCACGTGGGCCG | -0.24 kcal/mol
59 | TCGGGCACGTGGGCGC | -0.25 kcal/mol
60 | TAAGGCACGTGAGTAG | 0.06 kcal/mol
61 | TATTGCACGTGGGAGA | -0.07 kcal/mol
62 | AGGGTCACGTGAAGCA | 0.26 kcal/mol
63 | TGCGGCACGTGGAGCT | -0.13 kcal/mol
64 | TGCGGCACGTGTCAAG | -0.08 kcal/mol
65 | GTTAACACGTGGCGGA | 0.04 kcal/mol
66 | TGTGGCACGTGGACAT | -0.15 kcal/mol
67 | TGCGTCACGTGTTTCG | 0 kcal/mol
68 | TATAGCACGTGCGGTT | -0.1 kcal/mol
69 | TTGAGCACGTGTGGTA | 0.02 kcal/mol

Row | Sequence | relative binding free energy
70 | TTTTACACGTGTACTT | 0.16 kcal/mol
71 | GTCTGCACGTGCGAGT | 0.08 kcal/mol
72 | GTGTCCACGTGGTTTT | 0.1 kcal/mol
73 | GTATTCACGTGGAGTA | 0.33 kcal/mol
74 | TGTTTCACGTGGCCTG | 0.07 kcal/mol
75 | GCTGTCACGTGTGATT | 0.36 kcal/mol
76 | GTAGTCACGTGATGGT | 0.31 kcal/mol
77 | TAGTACACGTGGTGCA | 0.13 kcal/mol
78 | TGTGACACGTGATTAG | 0.04 kcal/mol
79 | TTAGTCACGTGGTCGG | 0.01 kcal/mol
80 | GAGGCCACGTGTGAGT | -0.05 kcal/mol
81 | TTTCGCACGTGGGTGT | -0.11 kcal/mol
82 | TCGTACACGTGTTTGC | 0.15 kcal/mol
83 | TTACTCACGTGCTGGT | 0.3 kcal/mol
84 | TGTATCACGTGTTAGG | 0.06 kcal/mol
85 | ATCGACACGTGGTCGT | 0.04 kcal/mol
86 | TGTGGCACGTGGGAGA | -0.13 kcal/mol
87 | ATTATCACGTGTTTGC | -0.01 kcal/mol
88 | TTGCTCACGTGCAGTG | 0.18 kcal/mol
89 | CGACTCACGTGGAGGG | 0.16 kcal/mol
90 | TGTTCCACGTGTCGTT | 0.11 kcal/mol
91 | GTTGGCACGTGCTTTT | -0.08 kcal/mol
92 | TAGGTCACGTGTGTCA | -0.07 kcal/mol

Row | Sequence | relative binding free energy
93 | AGGTTCACGTGGATGA | 0.18 kcal/mol
94 | GCAAGCACGTGTTTGG | -0.05 kcal/mol
95 | CTAGTCACGTGTTGGT | 0.1 kcal/mol
96 | CTGATCACGTGTTGTG | 0.09 kcal/mol
97 | GGAATCACGTGGGGTA | 0.09 kcal/mol
98 | GCGTACACGTGGCGGG | 0.04 kcal/mol
99 | CTTCGCACGTGTGAGG | -0.01 kcal/mol
100 | TGATTCACGTGCGTAG | 0.24 kcal/mol
101 | GGCCGCACGTGTAGGT | -0.03 kcal/mol
102 | TAGGGCACGTGGTACG | -0.19 kcal/mol
103 | AAGGGCACGTGGTTTA | -0.1 kcal/mol
104 | TGTGTCACGTGAAATG | 0.26 kcal/mol
105 | GCGATCACGTGTTTGT | 0.14 kcal/mol
106 | TGTATCACGTGCGCGT | -0.11 kcal/mol
107 | TCGGACACGTGGGGAG | -0.09 kcal/mol
108 | GCGGGCACGTGGGACT | -0.22 kcal/mol
109 | AATTACACGTGGTTGA | 0.09 kcal/mol
110 | GTAGACACGTGAAGTG | 0.3 kcal/mol
111 | GTATGCACGTGCGGGT | -0.05 kcal/mol
112 | AGATCCACGTGTGGTA | 0.09 kcal/mol
113 | GTTTACACGTGGTCGG | 0.15 kcal/mol
114 | GGGTGCACGTGTTGTA | 0.12 kcal/mol
115 | GATGGCACGTGGTGTT | -0.03 kcal/mol
